{"source": "PubChem BioAssay (NCATS)", "key": {"[1]": {"target": "Retinal dehydrogenase 2 (Homo sapiens) (UniProt O94788)", "test": "qHTS for Inhibitors of the Aldehyde Dehydrogenase Family (ALDH1A2) Confirmation screens (AID 2061314); also: nearly all actives have a fitted effect of over 65% in size", "conditions": "activity, negative = inhibition: at 45.9 µM (top of the series) unless noted"}, "[2]": {"target": "Aldehyde dehydrogenase 1A1 (Homo sapiens) (UniProt P00352)", "test": "qHTS for Inhibitors of the Aldehyde Dehydrogenase Family (ALDH1A1) Confirmatory screens (AID 2061316); also: nearly all actives have a fitted effect of over 65% in size", "conditions": "activity change, negative = inhibition: at 47.3 µM (top of the series)"}, "[3]": {"target": "Retinaldehyde dehydrogenase 3 (Homo sapiens) (UniProt P47895)", "test": "qHTS for Inhibitors of the Aldehyde Dehydrogenase Family (ALDH1A3) Primary screen (AID 2061315)", "conditions": "ALDH inhibition qHTS; activity change, negative = inhibition: at 56 µM (top of the series) unless noted"}}, "note": "This list was built around the results that the source calls inconclusive (neither active nor inactive); the mix of calls is not that of the screen. Potencies of inconclusive entries are left out as doubtful fits. The source made the active and inactive calls. Calls follow the shape of the dose curve; as a rule, active = well fitted inhibition curve with a large enough effect; inconclusive = small, poorly fitted or top-dose-only effect; inactive = no such curve, though single readings can be large or run the other way. Potency is read from the fitted curve at half-maximal effect; tags tell the direction and shape of the fitted curve."}
{"smiles": "Cc1ccc(C)c(SC2=NS(=O)(=O)c3ccccc32)c1", "values": [{"measurement": "Potency", "setting": "[1]", "result": "inconclusive [inhibitor, full curve, poor fit]"}, {"measurement": "Potency", "setting": "[2]", "result": "inactive"}]}
{"smiles": "O=C([C@H]1C[C@H](Oc2ccccc2)CN1S(=O)(=O)c1ccc(F)cc1)N1CCOCC1", "values": [{"measurement": "Potency", "setting": "[1]", "result": "inconclusive [inhibitor, partial curve, poor fit]"}]}
{"smiles": "Nc1ccc(S(=O)(=O)N2CCN(S(=O)(=O)c3c(F)cccc3F)CC2)cc1", "values": [{"measurement": "Potency", "setting": "[1]", "result": "inactive"}, {"measurement": "Potency", "setting": "[2]", "result": "inconclusive [inhibitor, single point]"}]}
{"smiles": "COc1ccc(OC)c(S(=O)(=O)Nc2ccc3[nH]c(=O)[nH]c3c2)c1", "values": [{"measurement": "Potency", "setting": "[1]", "result": "inactive"}]}
{"smiles": "Cc1ccccc1NC(=O)CSc1nc2ccccc2c2nc(CCn3cncc3C)nn12", "values": [{"measurement": "Potency", "setting": "[1]", "result": "inactive"}]}
{"smiles": "COc1ccc(NC(=O)CN2C(=O)COc3ccc(S(=O)(=O)N4CCOCC4)cc32)cc1", "values": [{"measurement": "Potency", "setting": "[1]", "result": "inactive"}]}
{"smiles": "CC1(C)CC[C@]2(C(=O)O[C@@H]3O[C@H](CO[C@@H]4O[C@H](CO)[C@@H](O)[C@H](O)[C@H]4O)[C@@H](O)[C@H](O[C@@H]4O[C@H](CO)[C@@H](O)[C@H](O)[C@H]4O)[C@H]3O)[C@H](O)C[C@]3(C)C(=CCC4[C@@]5(C)CC[C@H](O[C@@H]6OC[C@@H](O)[C@H](O)[C@H]6O)[C@@](C)(C(=O)O)C5CC[C@]43C)[C@@H]2C1", "note": "(stereo partly specified)", "values": [{"measurement": "Potency", "setting": "[3]", "result": "inactive"}]}
{"smiles": "CCc1ccc(-n2c(SCc3cccc(F)c3)nc3[nH]ncc3c2=O)cc1", "values": [{"measurement": "Potency", "setting": "[1]", "result": "inactive"}, {"measurement": "Potency", "setting": "[2]", "result": "active: 1.82 µM"}]}
{"smiles": "CCOc1ccc(C(=O)Nc2cccc(NC(=O)c3ccc(C(C)(C)C)cc3)c2)cc1Br", "values": [{"measurement": "Potency", "setting": "[1]", "result": "inconclusive [inhibitor, single point]"}]}
{"smiles": "CC(=O)c1cccc(NC(=O)c2ccc(Cl)c(S(=O)(=O)N3CCOCC3)c2)c1", "values": [{"measurement": "Potency", "setting": "[1]", "result": "inactive"}]}
{"smiles": "CCOc1ccc(S(=O)(=O)N2CCN(c3ccccc3)CC2)cc1C(N)=O", "values": [{"measurement": "Potency", "setting": "[1]", "result": "inactive"}]}
{"smiles": "CCn1cc(C(=O)N(C)c2cc(C)ccc2C)c2cc(OC)c(OC)cc2c1=O", "values": [{"measurement": "Potency", "setting": "[1]", "result": "inactive"}]}
{"smiles": "CCOc1ccc(C(=O)Nc2ccc3nc(Nc4cccc(C(F)(F)F)c4)cc(C)c3c2)cc1OCC", "values": [{"measurement": "Potency", "setting": "[1]", "result": "inconclusive [inhibitor, partial curve]"}]}
{"smiles": "O=C(COc1ccccc1-c1nc(-c2ccccc2)no1)Nc1ccc([N+](=O)[O-])cc1", "values": [{"measurement": "Potency", "setting": "[1]", "result": "inactive"}]}
{"smiles": "CSc1nnc(NC(=O)Cc2coc3cc(C)ccc23)s1", "values": [{"measurement": "Potency", "setting": "[1]", "result": "inconclusive [inhibitor, full curve, poor fit]"}]}
{"smiles": "Cc1cccc(-n2nc(C)c(CCC(=O)N3CCOCC3)c2Oc2ccccc2C)c1", "values": [{"measurement": "Potency", "setting": "[1]", "result": "inconclusive [inhibitor, partial curve]"}]}
{"smiles": "COc1ccc(-c2cc(C(=O)NCCc3ccc(OC)c(OC)c3)c3ccccc3n2)cc1", "values": [{"measurement": "Potency", "setting": "[1]", "result": "inactive"}]}
{"smiles": "Cc1ccc(Cc2nc3ccccc3nc2SCC(=O)Nc2cccc(C(F)(F)F)c2)cc1", "values": [{"measurement": "Potency", "setting": "[1]", "result": "inactive"}]}
{"smiles": "COc1cc(C(=O)NCC(c2ccco2)S(=O)(=O)c2ccccc2)cc(OC)c1OC", "note": "(stereo unspecified)", "values": [{"measurement": "Potency", "setting": "[1]", "result": "inactive"}]}
{"smiles": "O=C(NC1CCCc2c1cnn2-c1ccc(F)cc1F)c1ccc(C(=O)c2ccccc2)cc1", "note": "(stereo unspecified)", "values": [{"measurement": "Potency", "setting": "[1]", "result": "inconclusive [inhibitor, partial curve, poor fit]"}, {"measurement": "Potency", "setting": "[2]", "result": "inconclusive [inhibitor, partial curve]"}]}
{"smiles": "O=C(O)C1(Oc2ccc(Cl)cc2)CCN(c2cnccn2)CC1", "values": [{"measurement": "Potency", "setting": "[1]", "result": "inactive"}]}
{"smiles": "CCOC(=O)CSc1nc2ccccc2c(=O)n1-c1ccc(C(=O)NCCOC)cc1", "values": [{"measurement": "Potency", "setting": "[1]", "result": "inconclusive [inhibitor, single point]"}]}
{"smiles": "COc1cccc(-c2nn(-c3ccccc3)c(OC(C)=O)c2-c2ccc(NC(=O)C3CCCC3)cc2)c1", "values": [{"measurement": "Potency", "setting": "[1]", "result": "inactive"}]}
{"smiles": "CN(CC1(CO)CC1)c1nccc(CCC(F)(F)F)n1", "values": [{"measurement": "Potency", "setting": "[1]", "result": "inactive"}]}
{"smiles": "Cc1cc(N[S+](=O)([O-])c2cc3c(cc2Cl)NC(=O)CO3)ccc1Cl", "values": [{"measurement": "Potency", "setting": "[1]", "result": "inconclusive [inhibitor, partial curve]"}, {"measurement": "Potency", "setting": "[2]", "result": "inactive"}]}
{"smiles": "Cc1ccc(CN(C(=O)COc2ccc([N+](=O)[O-])cc2)c2ccccn2)cc1", "values": [{"measurement": "Potency", "setting": "[1]", "result": "inactive"}]}
{"smiles": "COc1ccc(-c2ccc(C(=O)Nc3cccc(C(F)(F)F)c3)cc2)nn1", "values": [{"measurement": "Potency", "setting": "[1]", "result": "inactive"}]}
{"smiles": "CCOc1ccc(CNC(=O)C2CCCCN2S(=O)(=O)c2ccc(F)cc2)cc1OC", "note": "(stereo unspecified)", "values": [{"measurement": "Potency", "setting": "[1]", "result": "inactive"}]}
{"smiles": "Cc1cn([C@H]2C[C@H](N[S+](=O)([O-])Cc3ccc(Cl)cc3)[C@@H](CO)O2)c(=O)[nH]c1=O", "values": [{"measurement": "Potency", "setting": "[1]", "result": "inactive"}, {"measurement": "Potency", "setting": "[2]", "result": "inconclusive [inhibitor, partial curve]"}]}
{"smiles": "OC[C@H]1O[C@@H](OCCc2ccccc2)[C@H](O[C@@H]2OC[C@](O)(CO)[C@H]2O)[C@@H](O)[C@@H]1O", "values": [{"measurement": "Potency", "setting": "[3]", "result": "inconclusive [inhibitor, partial curve, poor fit]"}]}
